# In all, about 310,000 compounds went through this assay and about 14,000 (4.5%) showed an effect of 50% or more. The effect is printed as a negative number. The list shows a part of the results.
# Target: human ether-à-go-go-related gene (hERG) potassium channel (human, UniProt Q12809)
# Assay: primary screen, population patch clamp on CHO cells stably expressing hERG
# 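Note: peak tail current of the secondary pulse compared with the same well before compound.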
# Chain of human ether-à-go-go-related gene (hERG) potassium channel (Q12809 whole entry, looked up): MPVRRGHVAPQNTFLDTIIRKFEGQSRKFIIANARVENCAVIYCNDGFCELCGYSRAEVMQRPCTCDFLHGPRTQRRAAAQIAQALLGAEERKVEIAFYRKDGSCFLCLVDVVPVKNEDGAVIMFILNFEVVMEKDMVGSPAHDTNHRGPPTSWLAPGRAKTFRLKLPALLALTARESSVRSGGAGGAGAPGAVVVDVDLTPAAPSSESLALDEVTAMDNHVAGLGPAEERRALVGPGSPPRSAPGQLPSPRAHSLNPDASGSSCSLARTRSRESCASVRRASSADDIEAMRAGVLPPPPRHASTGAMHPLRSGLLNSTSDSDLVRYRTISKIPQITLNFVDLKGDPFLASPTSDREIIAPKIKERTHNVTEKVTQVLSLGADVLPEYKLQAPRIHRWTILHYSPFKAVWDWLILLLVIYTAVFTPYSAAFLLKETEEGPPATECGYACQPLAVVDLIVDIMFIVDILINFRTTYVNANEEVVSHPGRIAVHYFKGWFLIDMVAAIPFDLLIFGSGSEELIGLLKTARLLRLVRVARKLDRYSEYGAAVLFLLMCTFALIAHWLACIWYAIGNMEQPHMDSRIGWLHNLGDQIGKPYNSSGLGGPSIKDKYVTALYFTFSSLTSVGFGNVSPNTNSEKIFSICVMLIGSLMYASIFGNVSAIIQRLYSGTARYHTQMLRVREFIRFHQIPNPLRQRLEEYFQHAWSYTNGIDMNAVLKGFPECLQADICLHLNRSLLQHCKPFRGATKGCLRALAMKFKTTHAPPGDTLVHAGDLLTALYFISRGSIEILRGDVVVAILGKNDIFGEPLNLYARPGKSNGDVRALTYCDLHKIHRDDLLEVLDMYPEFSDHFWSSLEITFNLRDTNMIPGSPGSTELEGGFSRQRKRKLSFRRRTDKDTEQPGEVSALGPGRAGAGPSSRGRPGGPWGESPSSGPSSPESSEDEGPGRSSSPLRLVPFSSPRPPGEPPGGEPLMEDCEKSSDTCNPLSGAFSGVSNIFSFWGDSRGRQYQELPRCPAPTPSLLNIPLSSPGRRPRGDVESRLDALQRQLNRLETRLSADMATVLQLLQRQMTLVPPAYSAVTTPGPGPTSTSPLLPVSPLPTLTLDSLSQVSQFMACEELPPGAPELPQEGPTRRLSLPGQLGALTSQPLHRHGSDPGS
row,Structure (SMILES),"hERG current change (%, negative = inhibition) at 10uM [%]"
1,CC(Oc1ccc2ccccc2c1)C(=O)NNC(=S)NC(=O)c1ccco1 (stereo not drawn),7.62
2,CC1=Nc2cc(C(=O)NCCCN3CCOCC3)ccc2Sc2c(C)ccc(C)c21,3.13
3,COc1ccccc1NC(=O)c1csc2c1CCC(C)C2 (stereo not drawn),2.99
4,CCCCn1c(N)c(N(CCOC)C(=O)c2cccc(S(=O)(=O)N(CC)c3ccccc3)c2)c(=O)[nH]c1=O,-7.55
5,CC(/C=N/NC(=O)c1ccco1)=C\c1ccccc1,6.28
6,COc1ccccc1-c1cc2ccccc2[nH]1,0.615
7,COCCN(CCOC)S(=O)(=O)c1ccc(C(=O)Nc2ccc([N+](=O)[O-])cc2OC)cc1,2.81
8,O=C(NCC1CCCCC1)C1(CC2CC(c3cccc(Br)c3)=NO2)CCNCC1 (stereo not drawn),-24.1
9,COc1ccc(CC(=O)Nc2cccc(-c3nnc(-c4ccco4)o3)c2)cc1,3.56
10,CN(C)c1ccc(C(=S)N2CCCCCC2)cc1,-5.79
11,Cc1ccc(CN=C2NC(=O)C(CC(=O)NCCc3ccccc3)S2)cc1 (stereo not drawn),-10.4
12,N#Cc1c(N)nc(N)nc1Nc1ccc(Br)cc1,4.83
13,CCOC(=O)c1ccc(NC(=O)C2=C(C)Nc3nc(CCCO)nn3C2c2cccc(C)c2)cc1 (stereo not drawn),1.07
14,CCc1nn(C(C)C(=O)NCCN2CCCCCC2)c(=O)c2cc3occc3n12 (stereo not drawn),6.27
15,COc1ccc(/C=C/C(=O)c2ccccc2)cc1COc1ccccc1F,-3.03
16,Cc1nc(-c2cccs2)ccc1C(=O)O,-2.45
17,CCOC(=O)c1cc2c(ccn2C)n1Cc1ccccc1Cl,28.8
18,CCc1ccccc1N1CCN(S(=O)(=O)c2ccc(F)c(C)c2)CC1,4.43
19,O=C(NCc1ccco1)c1cccc(NC(=O)c2ccccc2)c1,-19.5

row,Structure (SMILES),"hERG current change (%, negative = inhibition) at 10uM [%]"
1,COC(=O)c1nc2n(n1)C(c1ccccc1OC)C1=C(CCCC1=O)N2 (stereo not drawn),4.21
2,COc1ccc(NS(=O)(=O)c2cccc3ccccc23)cc1,8.31
3,O=C(COC(=O)Cc1ccccc1F)NNC(=O)c1ccc(Cl)cc1,1.22
4,O=C1CCCC2=C1C(c1ccc3c(c1)OCO3)c1c([nH]n(-c3ccccc3)c1=O)N2 (stereo not drawn),3.47
5,O=C(NC1CCSC1=O)c1ccc(Oc2cccc(C(F)(F)F)c2)nc1 (stereo not drawn),-29.4
6,CCOC(=O)C1(CCOC)CCN(Cc2ccccc2-c2ccco2)CC1,-22.4
7,CSCCC1NC(=O)NC1=O (stereo not drawn),8.42
8,O=S(=O)(NCCC1=CCCCC1)c1ccc(F)cc1,-5.81
9,O=C(Nc1ccccc1N1CCOCC1)c1csc2c1CCCC2,-0.704
10,O=C(COC(=O)c1ccccc1Cl)Nc1ccc2[nH]c(=O)[nH]c2c1,-2.94
11,COc1ccc(CCNC(=O)[C@@H](NC(=O)N2CC(=O)Nc3ccccc32)C(C)C)cc1OC,16.8
12,CCCc1nc2nc(C)c(NS(=O)(=O)c3ccc([N+](=O)[O-])cc3)c(=O)n2[nH]1,13.9
13,CCc1ccc(Nc2nnc(SCC(=O)Nc3cccc(S(=O)(=O)NC4=NCCCCC4)c3)s2)cc1,11.6
14,CCOc1cc(N2CCOCC2)c(OCC)cc1NC(=O)c1ccccc1,15.7
15,COc1ccc(OCCCC(=O)Nc2ccc(N3CCCCC3)cc2)cc1.Cl,-1.87
16,Cc1cc(S(=O)(=O)N2CCCOC2CNC(=O)C(=O)NCc2cccs2)ccc1F (stereo not drawn),13.4
17,COc1cccc(NC(=O)CN(C)C(=O)c2cc3c(s2)CCCCC3)c1,-8.53
18,Cc1ccc(-n2ncc3c(=O)n(-c4ccc(C)c(C)c4)c(-c4ccco4)nc32)cc1,-3.38
19,CCCOn1c(-n2nc(C)cc2C)nc2ccccc2c1=O,8.66

row,Structure (SMILES),"hERG current change (%, negative = inhibition) at 10uM [%]"
1,COc1ccc(CC(=O)N(CC2CCCO2)c2nc3ccccc3s2)cc1 (stereo not drawn),-3.7
2,CCC(CC)COC(=O)C1=C(C)NC(=O)NC1c1ccc(N(C)C)cc1 (stereo not drawn),27.8
3,Cc1oc(-c2ccc(Cl)cc2)cc1C(=O)/C(C#N)=C/Nc1cccc(OC(F)(F)F)c1,1.1
4,Cc1cccn2cc(CCNS(=O)(=O)c3ccc4c(c3)OCCO4)nc12,-4.57
5,COc1ccccc1Nc1nc2nonc2nc1N1CCCCC1C (stereo not drawn),13
6,CCOC(=O)N1CCN(S(=O)(=O)N(C)C)CC1,6.78
7,COc1cccc(C2CC(c3ccc(C)cc3)n3ncnc3N2)c1 (stereo not drawn),-21.4
8,COc1ccccc1-n1ccnc(SCC(=O)NC2CCCCC2)c1=O,9.93
9,CCOc1ccccc1NS(=O)(=O)c1ccc(OC)c(OC)c1,15.4
10,CCN(CC)S(=O)(=O)c1cccc(-c2nnc(SCC(N)=O)n2CCc2ccccc2)c1,-37.3
11,CC1CCN(C(=O)CNS(=O)(=O)c2ccc(Br)s2)CC1,-20
12,CCOC(=O)C1C(=O)CC(C)(O)C(C(=O)OCC)C1c1ccco1 (stereo not drawn),-4.04
13,CC(=O)Nc1cccc(Oc2cc(C#N)c(C#N)cc2N2CCOCC2)c1,-19.8
14,COc1ccc(C(=O)N/N=C/c2sc3ccccc3c2O)cc1,0.939
15,Cn1c(N)c(-c2nc3cccnc3n2C)sc1=S,62.2
16,O=C1C2CCCN2C(=S)N1C1CCCCC1 (stereo not drawn),-3.32
17,COc1ccc(CCNC(=O)CSc2n[nH]c(N)n2)cc1OC,30.1
18,CCOc1ccccc1N(C(=O)CNC(=O)c1ccco1)C(C(=O)NC(C)(C)C)c1ccncc1 (stereo not drawn),5.92
19,S=c1[nH]nc(-c2cc(-c3ccccc3)n[nH]2)n1/N=C/c1ccccc1,23.8
